Data reported in PubChem BioAssay AID624296 (National Center for Advancing Translational Sciences (NCATS), 2012).
Out of some 350,000 compounds screened, about 9,900 (2.8%) were called active. The inconclusive results got no clear call from the source; some entries with a clear call stand among them for comparison. Calls follow the shape of the dose curve; as a rule, active = well fitted activation curve with a large enough effect; inconclusive = small, poorly fitted or top-dose-only effect; inactive = no such curve, though single readings can be large or run the other way. Potencies of inconclusive entries are left out as doubtful fits.

Experiment: A quantitative high throughput screen for small molecules that induce DNA re-replication in MCF 10a normal breast cells. Also: nearly all actives have a fitted effect of over 50% in size.
Conditions: MCF 10A DNA re-replication, Hoechst nuclear intensity, 48 h; series mostly up to 46.1 µM
Potency is read from the fitted curve at half-maximal effect; tags tell the direction and shape of the fitted curve.

SMILES	Potency
O=C(O)c1ccccc1-c1ccccc1C(=O)NCc1ccccc1F	inconclusive [activator, single point]
COc1ccc(/C=N/NC(=O)c2nc(-c3ccccc3)cc(-c3ccccc3)n2)cc1	inconclusive [activator, full curve, poor fit]
CCc1ccc(NC(=O)c2cc3c(C)nc4ccccc4c3o2)cc1	inconclusive [activator, single point]
O=C(O)CN=C(NS(=O)(=O)c1ccc(Cl)cc1)c1ccc(F)cc1	inactive
CC(=O)c1ccc(OCCCC(=O)NNC(=O)c2ccccn2)cc1	inactive
CC(C)(C)c1ccc(/C=N/OCC(=O)NCc2ccccc2)cc1	inconclusive [activator, single point]
Nc1ncnc2c1ncn2[C@@H]1O[C@H](CNCc2ccccc2OC2OC(CO)C(O)C(O)C2O)[C@@H](O)[C@H]1O (some centres not stated)	inactive
Cc1ccc(NC(=O)c2cccnc2C(=O)Nc2ccc(C)cc2)cc1	inconclusive [activator, single point]
O=C(CN1CCC(C(=O)c2cccc(Cl)c2)CC1)Nc1ccc(C(=O)O)cc1	inconclusive [activator, single point]
Cn1nc(C(=O)Nc2ccc(-n3cnnn3)cc2)c2ccccc2c1=O	inactive
Cc1ccc(C(=O)NC2(O)C(=O)c3ccccc3C2=O)cc1C	inconclusive [activator, single point]
COCCNC(=S)N/N=C/c1c2ccccc2cc2ccccc12	active: 14.6 µM
COCn1c(-c2ccc(OC)cc2)nc2ccccc21	inactive
CC(NC(=O)C1CC1)C(c1cccs1)N1CCOCC1 (configuration not stated)	inactive
C=C(C)C(=O)O[C@H]1C/C(C)=C\C(=O)/C=C(\C)[C@H](O)[C@@H]2OC(=O)C(=C)[C@@H]21	inconclusive [activator, full curve, poor fit]
COc1ccc(-c2cc(-c3ccc(O)cc3)nc(N)c2C#N)cc1	inconclusive [activator, single point]
Oc1c(Br)cc(C=Nc2ccc3nc(-c4ccccc4)[nH]c3c2)c(O)c1Br	active: 20.6 µM
Cc1ccc2c(N)c(C(=O)N(c3ccccc3)c3ccccc3)sc2n1	inconclusive [activator, partial curve]
O=C(Cn1nnc(-c2ccccc2)n1)Nc1cccc(S(=O)(=O)N2CCOCC2)c1	inactive
CC1=C(C(=O)OCc2ccccc2)C(c2ccc(C)o2)C2=C(CCCC2=O)N1 (configuration not stated)	inconclusive [activator, single point]
Nc1cc(=O)[nH]c(SCC(=O)N2N=C(c3ccc4ccccc4c3)CC2c2ccccc2)n1 (configuration not stated)	inconclusive [activator, single point]
O=C(NCc1n[nH]c(=O)c2ccccc12)C1CC(=O)N(c2ccccc2)C1 (configuration not stated)	inconclusive [activator, single point]
CC(=O)Nc1cccc(C(=O)N/N=C/c2c[nH]c3ccccc23)c1	inactive
CCOc1cc(/C=C2\COc3ccccc3C2=O)ccc1OCC(=O)N(C)C	active: 14.6 µM

SMILES	Potency
COC(=O)c1cccc(NC(=O)Nc2ccc(Cl)cc2)c1	inconclusive [activator, full curve, poor fit]
COc1ccc(C(=O)N(C)C(C)c2ccon2)cc1OC1CCN(C(C)C)CC1 (configuration not stated)	inactive
CCCN1CCN(C(=S)Nc2ccc(SC(F)F)cc2)CC1	inactive
Cc1ccc(-c2nnn(CC(=O)N(c3ccccc3)C(C(=O)NCC3CCCO3)c3ccc(Cl)cc3)n2)cc1 (configuration not stated)	active: 18.4 µM
Cc1ccc(OCC(=O)N2CCc3ccccc3C2)c(C)c1	inactive
COc1cccc(NC(=O)COC(=O)/C=C/c2c(C)nn(-c3ccccc3)c2C)c1	inactive
COC1=C(C)C(O)=C(C(=O)/C=C/c2ccccc2)C(=O)C1(C)C	inconclusive [activator, partial curve, poor fit]
O=C(c1cnn2c(C(F)(F)F)cc(-c3ccc4c(c3)OCO4)nc12)N1CCCC1	inconclusive [activator, full curve, poor fit]
CCOc1ccc(C(=O)Nc2cc(C)ccn2)cc1	inconclusive [activator, single point]
Cc1ccc(NC(=O)Cc2noc3ccccc23)c(C)c1	inactive
CC(C)OCCCNc1ncc2c(n1)CC(c1cccs1)CC2=O (configuration not stated)	inactive
Cc1c(C)c(C)c(S(=O)(=O)N2CCSCC2)c(C)c1C	inconclusive [activator, single point]
Cc1occc1C(=O)N/N=C/c1cccnc1	inconclusive [activator, partial curve, poor fit]
CC(OC(=O)CN1C(=O)NC2(CCCC2)C1=O)C(=O)c1ccccc1 (configuration not stated)	inactive
CCCCCc1cc(=O)oc2c(C(CCN(CC)CC)c3cc(OC)c(OC)c(OC)c3)c(OC)cc(OC)c12 (configuration not stated)	inactive
Cc1ccc(C)c(NC(=O)C(Sc2nc3ccc(C)cc3[nH]2)c2ccccc2)c1 (configuration not stated)	active: 20.6 µM
CCOCCCNC(=S)Nc1ccc2nc(N3CCOCC3)cc(C)c2c1	inactive
CC1CCCCN1C(=O)Cn1cc(C=O)c2ccccc21 (configuration not stated)	inconclusive [activator, single point]
N#Cc1sc2nc(-c3ccccc3)cc(-c3ccco3)c2c1N	inconclusive [activator, partial curve, poor fit]
O=C(CCC(=O)Nc1ccc(Cl)cc1Cl)NNC(=O)[C@@H]1CCCC[C@@H]1C(=O)O	inconclusive [activator, partial curve, poor fit]
CC1CCN(C2=NC(=O)/C(=C/c3cn[nH]c3-c3ccccc3)S2)CC1	inconclusive [activator, single point]
NS(=O)(=O)c1ccc(CCNC(=O)COC(=O)CCSc2ccc(Cl)cc2)cc1	inconclusive [activator, single point]
CN1CCc2c(sc3nc(SCC(=O)NCc4ccco4)n(-c4ccccc4)c(=O)c23)C1	inconclusive [activator, single point]
Cc1ccccc1OCC(=O)Nc1ccc(Cc2ccncc2)cc1	inactive

SMILES	Potency
Nc1cc(=O)[nH]c(SCCSc2ccccc2F)n1	inactive
O=C(Cn1ncn2c(cc3ccccc32)c1=O)NCCCc1ccccc1	inactive
O=C(O)C(=O)/C(=C\c1ccc(Cl)cc1)c1ccc2ccccc2n1	inconclusive [activator, single point]
CC(C)(O)c1ccccc1CC[C@@H](SCC1(CC(=O)O)CC1)c1cccc(/C=C/c2ccc3ccc(Cl)cc3n2)c1	inconclusive [activator, single point]
CCN(C[C@H]1N[C@@](CC)(C(=O)OC)[C@H]2C(=O)N(Cc3ccccc3)C(=O)[C@@H]12)C(=O)c1ccc(C(C)(C)C)cc1	inconclusive [activator, single point]
COc1cc(C(=O)N(C)Cc2cccc(OC)c2OC)ccc1OCC(=O)Nc1cccc(C(F)(F)F)c1	inconclusive [activator, partial curve, poor fit]
CCc1nc(N2CCN(C(=O)c3ccco3)CC2)c2c3c(sc2n1)CCCC3	inactive
CC1(C)Cc2[nH]c(=O)c(C#N)cc2CS1	inconclusive [activator, single point]
CC(C)n1c(=NC(=O)c2ccco2)c(C#N)cc2c(=O)n3ccccc3cc21	active: 8.91 µM
O=c1[nH]c(SCc2cccc(Cl)c2)nc2c1CCCC2	inconclusive [activator, full curve, poor fit]
Cn1cccc1/C=C1\SC(=Nc2cccc(O)c2)NC1=O	active: 9.2 µM
CCOC(=O)CN(C(=O)CN1CCC(n2nnc3cc(C)ccc32)CC1)c1ccccc1	inactive
CCOC(=O)Cn1c2c(c(=N)c3c1CCC3)CCCC2	inactive
CCN1CCN(C(=O)C(Cc2ccccc2)NC(=O)c2ccc(Cl)c(S(=O)(=O)N(C)C)c2)CC1 (configuration not stated)	inactive
CCOc1ccc(CCNC(=O)c2cccs2)cc1OCC	inactive
COc1cccc(/C=C/C(=O)NNC(=O)c2ccccc2)c1OC	inactive
COc1cc(/C=C2\SC(=O)N(CCN)C2=O)ccc1OS(=O)(=O)c1cc(C)ccc1C	inconclusive [activator, single point]
O=C1C2C(c3ccccc3)CC=CC2[C@H](c2ccc3ccccc3c2)N1Cc1ccccc1 (some centres not stated)	inconclusive [activator, single point]
O=C(/C=C1\NC2(CCCC2)Cc2ccccc21)N1CCOCC1	inconclusive [activator, single point]
Cc1ccc(-n2c(Cc3cccs3)nnc2SCC(=O)Nc2ccc(F)c(F)c2)cc1	inconclusive [activator, partial curve, poor fit]
CSc1nnc(-c2ccc(C(F)(F)F)nc2C)o1	inactive
Cc1ccc(NC(=S)NC(=O)C2CCCC2)c(Br)c1	inconclusive [activator, single point]
COc1cccc(Cn2cccc(NC(=O)Nc3cccc(C#N)c3)c2=O)c1	inconclusive [activator, single point]
Cc1ccc(Nc2nc(-c3ccc(S(=O)(=O)N4CCCC4)cc3)cs2)cc1C	inconclusive [activator, single point]
